For experiment [1], the target named is IL-10RB-Flag in engineered MEFs (human) (UniProt Q08334). Put plainly: co-IP; engineered Atg16l1−/− MEFs (FL or Nt ATG16L1, IL-10RA-AU, IL-10RB-Flag) untreated or treated with IL-10, with or without E64d/pepstatin (10 μg/ml each) for 30 min; anti-Flag immunoprecipitation, Western blot. For orientation: Immunoblotting shows a protein as a band on a membrane.
Experiment [2] has as its target GST-WDD (ATG16L1 320–607) (human) (UniProt Q676U5). Briefly: co-IP; HEK-293T co-transfected with tagged receptor and GST-fused ATG16L1 fragment, lysed 36 h later (1% Igepal CA-630, diluted to 0,2%), GST precipitated with GSH-agarose beads, Western blot.
The target in experiment [3] is GST-ΔWDD (ATG16L1 1–319) (human) (UniProt Q676U5). The experiment is described as above.
The target of experiment [4] is full-length ATG16L1 (human) (UniProt Q676U5). Put plainly: co-IP; wild-type or motif-mutated receptors with full-length ATG16L1 (Supplementary Fig. 4a, b; not shown).
Experiment [5] has the same target. Briefly: co-IP; additional co-immunoprecipitation studies performed in different conditions (Supplementary Fig. 3a, b; not shown).

Amino acid sequences for entries named in this document (tags omitted). A change or cut given only in a name is not applied to a line headed by its entry. Residues count along the entry.
UniProt Q08334, residues 20-325: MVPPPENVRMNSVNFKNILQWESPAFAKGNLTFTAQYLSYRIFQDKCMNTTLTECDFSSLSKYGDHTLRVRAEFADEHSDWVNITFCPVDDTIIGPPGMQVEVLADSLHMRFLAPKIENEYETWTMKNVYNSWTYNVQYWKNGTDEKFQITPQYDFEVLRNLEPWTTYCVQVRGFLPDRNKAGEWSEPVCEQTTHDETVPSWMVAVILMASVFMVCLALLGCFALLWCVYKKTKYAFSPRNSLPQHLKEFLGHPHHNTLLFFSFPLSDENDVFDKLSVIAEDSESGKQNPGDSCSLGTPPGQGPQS
UniProt Q676U5: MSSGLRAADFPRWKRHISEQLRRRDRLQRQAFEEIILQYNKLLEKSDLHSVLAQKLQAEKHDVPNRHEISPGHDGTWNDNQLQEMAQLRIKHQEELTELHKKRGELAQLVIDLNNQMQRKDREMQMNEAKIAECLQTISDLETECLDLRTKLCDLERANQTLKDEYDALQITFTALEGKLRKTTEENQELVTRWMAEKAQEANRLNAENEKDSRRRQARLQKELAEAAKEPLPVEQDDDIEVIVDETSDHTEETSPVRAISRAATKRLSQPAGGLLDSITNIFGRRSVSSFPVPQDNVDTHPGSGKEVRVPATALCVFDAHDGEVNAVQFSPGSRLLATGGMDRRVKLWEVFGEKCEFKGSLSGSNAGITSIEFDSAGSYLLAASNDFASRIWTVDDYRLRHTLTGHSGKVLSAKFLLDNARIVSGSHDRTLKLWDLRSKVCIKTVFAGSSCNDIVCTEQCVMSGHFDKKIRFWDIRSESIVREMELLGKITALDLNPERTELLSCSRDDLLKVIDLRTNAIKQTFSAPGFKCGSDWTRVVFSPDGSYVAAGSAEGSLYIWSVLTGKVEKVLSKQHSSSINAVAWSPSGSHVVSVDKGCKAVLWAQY
GST-ΔWDD (ATG16L1 1–319): residues 1-319 of Q676U5
GST-WDD (ATG16L1 320–607): residues 320-607 of Q676U5
UniProt Q01638, residues 19-556: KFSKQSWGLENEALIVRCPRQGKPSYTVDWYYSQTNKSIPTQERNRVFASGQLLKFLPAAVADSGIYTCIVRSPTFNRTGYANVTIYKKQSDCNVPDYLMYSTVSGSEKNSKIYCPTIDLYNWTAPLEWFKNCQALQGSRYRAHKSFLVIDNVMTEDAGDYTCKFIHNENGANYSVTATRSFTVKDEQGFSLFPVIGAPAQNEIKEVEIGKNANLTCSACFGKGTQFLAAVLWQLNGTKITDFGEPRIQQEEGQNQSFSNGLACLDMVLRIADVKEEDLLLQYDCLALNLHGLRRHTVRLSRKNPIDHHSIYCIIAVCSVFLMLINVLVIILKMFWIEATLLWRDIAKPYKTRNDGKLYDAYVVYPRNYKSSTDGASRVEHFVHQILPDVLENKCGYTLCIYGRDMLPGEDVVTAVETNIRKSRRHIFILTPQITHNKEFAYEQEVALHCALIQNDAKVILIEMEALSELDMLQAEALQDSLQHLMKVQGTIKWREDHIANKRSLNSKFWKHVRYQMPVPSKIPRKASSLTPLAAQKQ

Results are given in words; binding and its absence hold for the method and conditions named. In cells and extracts the contact can be indirect. Some entries that bind do so weakly or less than the wild type.

For “FL-ATG16L1 in restored Atg16l1−/− MEFs (from UniProt Q676U5 1-607)”, the binding result in experiment [1] was “binds”.

Take “IL-33R (IL-1RL1; ST2), tagged (from UniProt Q01638 19-556) (receptor)”: the results for the binding result in experiment [2] and in experiment [3] were “binds” and “no binding”, respectively.

On to “IL-10RB, wild type, tagged (from UniProt Q08334 20-325) (receptor)”, for which the binding result in experiment [4] is “binds”; in experiment [5], “binds”; in experiment [2], “binds”; in experiment [3] it was “no binding”.

As for “ATG16L1 N-terminal domain (Nt, 1–299) in restored Atg16l1−/− MEFs (from UniProt Q676U5 1-299) (domain or fragment)”, in experiment [1], the binding entry was “no binding”.

For the origin of these results see article PMC7679444.
